Reference: the RNAGym collection of RNA variant scans (doi:10.1093/nar/gkz1192)
The source gives no read counts; variants with many changes may rest on few reads.

B1: CPEB3 Ribozyme (parent)
chain: UAACAGGGGGCCACAGCAGAAGCGUUCACGUCGCAGCCCCUGUCAGAUUCUGGUGAAUCUGCGAAUUCUGCUGUAUAUCUC

Variants of: B1
Assay: self-cleavage, relative activity (ratio to wild type); higher = more cleavage; in vitro, sequencing
Procedure, shortened: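 Relative activity was defined as the cleaved/total read fraction for a variant divided by the same fraction for the unmutated ribozyme. CPEB3 self-cleaving ribozyme libraries were made by rounds of error-prone PCR, barcoded, and transcribed in vitro with T7 RNA polymerase for 5 hours at 37°C, and cleavage ran through transcription plus a 15 min DNase I step before EDTA. Illumina sequencing of template-switched reverse transcripts gave the reads, and DNA sequencing mapped the barcodes. Averages come from three batches, using variants with at least 5 reads.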

Variant | self-cleavage
CAACAGGGGGCCACAGCAGAAGCGCCCACGUCGCAGCCCCAGUCAGAUUCUGGUGAAUCUGCGAAUUCUGCUGCAUAUCUC | 0.06
CAACAGGGGGCCACAGCAGAAGCGAUCACGUCGCAUCCCCUGUCAGAUUCUGGUGAAUCCGCGAAUUCUGCAGUAAAUCUC | 0.06
CAACAGGGGGCCACAGCAGAAGCGUCCACGUCGCAGCCCCUGUCAGAUUCUGGUGAAUCUGCGAAUUCUGCUGGAUAUCUC | 0.65
CAACAGGGGGCCACAGCAGAAGCGCUCACGUUACAGCCCCUGUCAGAUUCUGGUGAAUCUGCGAAUUCUGCUGUAUAUCUC | 0.21
CAACAGGGGGCCACAGCAGAAGCGUCCACGUCGCAGCCCCUGUCAGAUUCUGGUGAAUCUGCGAGUUCUGCUGAAUAUCUC | 0.14
CAACAGGGGGCCACAGCAAAAGCGUUCACGUCGCAGCCCCUGUCAGACUCUGGUGAAUCUGCGAAUUCUGCUGUAUAUCUC | 0.25
CAACAGGGGGCCACAGCAGAAGCGUCCACGUCGCUGCCCCUGUCAGAUUUUGGUGAAUCUGCGAAUUCUGCUGUAUAUCUC | 0.18
CAACAGGGGGCCACAGCAGAAGCGAUCACGUCGCACCCCCUGUCAGAUUCUGGUGAAUCUGCGAAUUCUGCUGUAUACCUC | 0.3
CAACAGGGGGCCACAGCAGAAGCGUACACGUCGCAGCCCCUGUCAGAUUCAGGUGAAUCUGCGAAUUCUGCUGUAUAUCCC | 0.65
CAACAGGGGGCCACAGCAGAAACGUACACGCCGCAGCCCCUGUCAGAUUCUGGUGGAUCUGCGAAUUCCGCUGUAUAUCUC | 0.07
CAACAGGGGGCCACAGCAGAAGCGACCACGUCGCAGCCCCUGUCAGAUUCUGGUGAAUCCGCGAAUUCUGCUGUAUGUCUC | 0.45
CAACAGGGGGCCACAGCAGAAGCGUUCACGUCGCAGCCCCUCUCAGAUUCUCGUGGAUCUGCGAAUUCUGCUGUAUAUCUC | 0.38
CAACAGGGGGCCACAGCAGAAGCGGUCACGUCGCAGCCCCUGUCAGAUUCUGGUGGAUCUGCGAAUUCUGCUGUAUAUCUC | 0.41
CAACAGGGGGCCACAGCAUAAGCGUUCACGUCGCAGCCCCUGUCAGAUUCUGGCGAAUCUGCGAAUCCUGCUGUUUAUCUC | 0.09
CAACAGGGGGCCACAGCAGAAGCGUUCACGCCGCAGCCCCUGUCAGGUUCUGGUGAAUCUGCGAAUUCUGCUGUAUAUCUC | 0.76
CAACAGGGGGCCACAGCAGAAGCGUGCACGUCGUAGCCCCUGUCAGAUUCUGAUGGAUCUGCGUAUUCUGCUGUAUAUCUU | 0.04
CAACAGGGGGCCACAGCAGAAGCAUUCACGUCGCAGCCCCUGUCAGAUUCUGGUGAAUCUGCGUAGUCUGCUGUAUAUCUC | 0.22
CAACAGGGGGCCACAGCAGAAGCGCCCACGUCGCAGCCCCUGUCAGAUUCUGGUGAAUCUGCGAAUUCUGCUGUAUAUCUC | 0.42
CAACAGGGGGCCACAGCAGAAGCGUUCACGUCGCAACCCCUGUCAGGUUCUGGUGUUUCUGCGAAUUCUGCUGUAUAUCUC | 0.16
CAACAGGGGGCCACAGCAAAAGCGUUCACGUCGCAGCCCCUGUCAGAUUUUGGUGAAUCUGCGAAUUCUGCUGUAUAUCUC | 0.07
CAACAGGGGGCCACAGCAGAAGCGUCCGCGUCGCUGCCCCUGCCAGAUUCUGGGGAAUCUGCGAAUUCUGCUGUAUAUCUC | 0.36
CAACAGGGGGCCACAGCAGAAGCGCUCUCGUCGCAGCCCCCGUCAGACUCUGGUGAAUCUGCGAAAUCUGCUGUAUAACUC | 0.05
CAACAGGGGGCCACAGCAUAGGCGUUCACGUCGCGGCCCCUGUCAGAUUCUGGUGAAUCUGCGAGUUCAGCUGUAUAUCUC | 0.13

Variant | self-cleavage
CAACAGGGGGCCACAGCAGAAGCGCUCACGUCGCAGCCCCUGUCGGAUUCUGGUGAAUCUGCGAAUUCUGCUGUAUAUCUC | 0.31
CAACAGGGGGCCACAGCAGAAGCGUUCACGUCGCAGCCCCAGUCAGAUCUUGGUGGAUCUGCGAAUUCUGCUGUAUAUCUC | 0.16
CAACAGGGGGCCACAGCAGAAGCGUCCACGUCGCAGCCCCUGUCAGAUUCUGGUGAAUCCGCGAAUACUGCUGUUUUUCUC | 0.37
CAACAGGGGGCCACAGCAGAAGCGUUCACCUCGCAGCCCCUGUCAGAUUCUGGUGGAUCCGCGAGUUCCGCUGUGUAUCUC | 0.04
CAACAGGGGGCCACAGCAGAAGCGUCCACGUCGCAGCCCCUGCCAGAUUCUGGUGAAUCUGCGAAUUCUGCUGUAUAUCUC | 0.4
CAACAGGGGGCCACAGCAGAAGCGUACGCGUCGCAGCCCCUGUCAGAUUCUGGUGAAUCUGCGAAUUCUGCUGUAUAUCUC | 0.37
CAACAGGGGGCCACAGCAGAAGCGUUCACGUCGCAGCCCCCGUCAGACUCUGGUGAAUCUGCGAAUUCUGCUGUAUAUCUC | 0.61
CAACAGGGGGCCACAGCAGAAGCGUUCACGUCGCAGCCCCAGUCAGAUUCUGGUGAAUCUGCGAAUCCUGCUGUAUAUCUC | 0.12
CAACAGGGGGCCACAGCAGAAGCGUUCACGGCGCAGCCCCUGUCAGAUUCUGGUGAAUCUGCGAAUUCUGCCGUAUAUCUC | 0.8
CAACAGGGGGCCACAGCAGAAGCGUUCACAUCGCAGCCCCUGUCAGAUUCUGGUGAAUCUGCGAAUUCUGCUGUAAAUCUC | 0.17
CAACAGGGGGCCACAGCAGAAGCGUUCACGUCGCAGCCCCCGUCAGAUUCUGGUGGAUCUGCGAAUUCAGCUGUAUAUCAC | 0.49
CAACAGGGGGCCACAGCAGAAGCGUUCACGACGCAGCCCCUGUCAUACUCUGGUGAAUCUGCGAAUUCUGCUGUAUAUCAC | 0.2
CAACAGGGGGCCACAGCAGAAGCGCUCACGUCGCAGCCCCUGUCAGAUUCUGGUGAAUCUGCGAAUUCCGCUGUAUAUCCC | 0.28
CAACAGGGGGCCACAGCAGAAGCGGUCACGUCGCAGCCCCUGUCAGAUUCUGGUGAAUCUGCGAAUUCCGCUGUAUAUCUC | 0.23
CAACAGGGGGCCACAGCAGAAGCGUUCACAUCGCGGCCCCUGUCAGAUUCUGGUGAAUCUGCGAAUUCUGCUGUAUAUCUC | 0.27
CAACAGGGGGCCACAGCAGAAGCGUUCACGACGCAGCCCCUGCCAGAUUCUGGUGGAUCCGCGAAUUCAGCUGUAUAUCUC | 0.06
CAACAGGGGGCCACAGCAGAAGCGUUCACGUCGCAGCCCCUGUCAUAUUCUGGUGAAUCUGCGAAUUCUGCUGCAUAUCUC | 0.18
CAACAGGGGGCCACAGCAGAAGCGUACACGUCGCAGCCCCUGUCAGAUUCUGGUGUAUCUGCGAAUUCUGCUGUAUGUCUC | 0.48
CAACAGGGGGCCACAGCAGAAGCGUUCACGUCGCAGCCCCCGUCAGAUACUGGUGUAUCUGCGAAUUCUGCUGUAUAUCUC | 1.12
CAACAGGGGGCCACAGCAGAAGCGUUCACGUCGCAGCCCCUGUCAGAUUCUGUUGAAUCUGCGAAUCCUGCUGUAUAUCUC | 0.24
CAACAGGGGGCCACAGCAGAAGCGUCCACGUCGCAGCCCCUGUCAGAUCCUGGUGAAUCAGCGAAUUCUGCUGUAUAUCUC | 0.2
CAACAGGGGGCCACAGCAGAAGCGCUCACGUCGCAGCCCCCGCCAGAUUCUGGUGAGUCUGCGAAUUCUGCUGUAUACCUC | 0
CAACAGGGGGCCACAGCAGAAGCGUUCACGUCGCAGCCCCAGUCAGAUUCUGGUGAAUCUGCGGAUACUGCUGUGUAUCUC | 0.37

Variant | self-cleavage
CAACAGGGGGCCACAGCAGAAGCGUUCACGUCGCAGCCCCCGUCAGGUUCUGGUGAAUCUGCGAAUUCUGCUGUAUAUCUC | 0.87
CAACAGGGGGCCACAGCAGAAGCGUCCACGUCGCAGCCCCUGUCCGAUUCUGGUGAAUCUGCGAAUUCUGCUGUAUAUCUC | 0.17
CAACAGGGGGCCACAGCACAAGCGCUCACGUCGCAGCUCCCGUCGGAUUCUGGUGAAUCUGCGAAUUCUGCUGUAUAUCUC | 0.04
CAACAGGGGGCCACAGCAGAAGCGUACACGUCGCGGCCCCUGUCAGAUUCUGGUGAGUCUGCGAAUUCAGCUGUACAUCUC | 0.97
CAACAGGGGGCCACAGCAGAAGCGUUCACGUCGCAGCCCCUGUCAGAUUCUAGUGUAUCUGCGAAUUCUGCUGUAUAUCUC | 1.02
CAACAGGGGGCCACAGCAGAAGCGUUCACGUCGCAGCCCCAGUCGGAUUCUGGUAGAUCUGCGAAUCCUGCUGUAUAUCUC | 0.06
CAACAGGGGGCCACAGCAGAAGCGCUCACGUCGCAGCCCCUGUCAGAUUCUGGUGAAUCUGCGAAUUCUGCUGUAUAUCAC | 0.43
CAACAGGGGGCCACAGCAGAAGCGCUCACGUCGCGGCCCCUGUCAGAUUCUGGUGAAUCUGCGAAUUCUGCUGUAUACCUC | 0.4
CAACAGGGGGCCACAGCAGAAGCGCUCACGUCGCGGCCCCUGUCAGAUUCUGGUGAAUCUGCGAAUUCUGCUGUAUAGCUC | 0.25
CAACAGGGGGCCACAGCAGAAGCGUUCACGCCGCAGCCCCUGUCUGAUUCUGGUGAAUCUGCGAAUUCUGCUGUAUAUCUC | 0.27
CAACAGGGGGCCACAGCAGAAGCGUUCACGUCGCAGCCCCUGUCAGAUUCUGGUGAAUCUGCAAAUUCUGCUGCAUAUCUA | 1.13
CAACAGGGGGCCACAGCAGAAGCGGUCACGUCGCAGCCCCUGUCAGAUUCUGGUACAUCUGCGAAUUCUGCUGUAUAUCUC | 0.12
CAACAGGGGGCCACAGCAGAAGCGUUCACGUCGCAGCCCCCGUCAGAUUCUGGUGAAUCUGCGAAUUCUGAUGUAUGUCCC | 0.2
CAACAGGGGGCCACAGCAGAAGCGUACACGUCGCGGCCCCUGUCAGAUUCUAGUGAAUCUGCGAAUUCUGCUGUACAUCUC | 1.28
CAACAGGGGGCCACAGCAGAAGCGUUCACUACGCAGCCCCUGUCAGAUUCUGGUGAAUCUGCGUAUUCUGCUGUAUAUCUC | 0.22
CAACAGGGGGCCACAGCAGAAGCCUUCACGUCGCAGCCCCUGUCAGAUUCUGGUGAAUCUGCGAAUUCUGCGGUAUAUCUC | 0.27
CAACAGGGGGCCACAGCAGAAGCGUUCACGUCGCAGCCCCUGUCAUAUUCUGGUGAAUCUGCGAAUUCUGCUGUAUAACUC | 0.11
CAACAGGGGGCCACAGCAGAAGCGCUCUCGUCGCAGCCCCUGUCGGAUUCUGGUGAAUCUGCGAACUCUGCUGUAUAUCUC | 0.36
CAACAGGGGGCCACAGCAGAAGCGUUCACGCCGCAGCCCAUGUCAGAUUCUGGUGAAUCUGCGAGUUCUGCUGUAUAUCUC | 0.2
CAACAGGGGGCCACAGCAGAAGCGUUCACGCCGCAGCCCCUGUCAGACUCUGGUGAAUCUGCGAAUUCUGCUGUAUAUCCC | 0.2
CAACAGGGGGCCACAGCAGAAGCGCUCACGUCGCAGCCCCUGUCAGAUCCUGGUGAAUCUGCGAAUUCUGCUGUAUAUCUC | 0.06
CAACAGGGGGCCACAGCAGAAGCGUUCACGACGCAGCCCCGGUCAGAUUCUGGUGAAUCUGCGAAUUCAGCUGUAUAUCCC | 0.07
